# Reference: publication PMC4336329 (PLoS ONE, 2015)
# In all, about 310,000 compounds went through this assay and about 2,200 (0.71%) showed an effect of 50% or more. The effect is printed as a negative number. Some of the results follow.
# Molecular target: human ether-à-go-go-related gene (hERG) potassium channel (human, UniProt Q12809)
# Assay: primary screen, population patch clamp on CHO cells stably expressing hERG
# human ether-à-go-go-related gene (hERG) potassium channel, sequence (Q12809 whole entry, looked up): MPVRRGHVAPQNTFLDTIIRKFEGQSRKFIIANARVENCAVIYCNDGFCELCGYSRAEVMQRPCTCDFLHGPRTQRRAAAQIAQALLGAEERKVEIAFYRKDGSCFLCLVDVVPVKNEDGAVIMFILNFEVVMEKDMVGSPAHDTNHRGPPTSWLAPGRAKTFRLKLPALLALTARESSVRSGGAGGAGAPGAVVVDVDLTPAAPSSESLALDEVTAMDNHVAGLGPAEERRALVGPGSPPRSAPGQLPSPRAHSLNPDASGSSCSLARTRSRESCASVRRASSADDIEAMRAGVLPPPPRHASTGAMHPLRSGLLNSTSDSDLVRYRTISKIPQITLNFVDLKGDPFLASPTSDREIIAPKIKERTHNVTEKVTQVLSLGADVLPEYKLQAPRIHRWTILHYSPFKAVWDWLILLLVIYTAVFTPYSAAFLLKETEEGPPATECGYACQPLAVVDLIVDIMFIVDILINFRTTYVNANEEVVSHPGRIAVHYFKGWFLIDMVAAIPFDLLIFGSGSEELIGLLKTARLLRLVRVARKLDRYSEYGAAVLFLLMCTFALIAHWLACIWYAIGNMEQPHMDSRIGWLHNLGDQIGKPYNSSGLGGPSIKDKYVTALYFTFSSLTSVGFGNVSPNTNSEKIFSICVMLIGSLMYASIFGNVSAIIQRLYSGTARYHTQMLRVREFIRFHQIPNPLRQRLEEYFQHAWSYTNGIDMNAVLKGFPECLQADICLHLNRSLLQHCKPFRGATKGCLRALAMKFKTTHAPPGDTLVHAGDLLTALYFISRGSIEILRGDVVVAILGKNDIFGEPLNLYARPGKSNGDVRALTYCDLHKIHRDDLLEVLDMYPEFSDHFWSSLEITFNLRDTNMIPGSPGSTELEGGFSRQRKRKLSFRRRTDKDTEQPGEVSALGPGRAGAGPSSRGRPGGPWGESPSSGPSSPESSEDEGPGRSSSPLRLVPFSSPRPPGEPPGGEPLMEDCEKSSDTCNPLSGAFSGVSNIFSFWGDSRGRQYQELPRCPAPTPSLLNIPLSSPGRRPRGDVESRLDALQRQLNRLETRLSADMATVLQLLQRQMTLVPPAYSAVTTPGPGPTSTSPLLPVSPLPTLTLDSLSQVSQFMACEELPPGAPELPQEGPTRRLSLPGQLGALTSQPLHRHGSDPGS
row,Structure (SMILES),"hERG current change (%, negative = inhibition) at 1uM [%]"
1,CCOC(=O)c1ccc(N2C(=O)C3CCOc4ccccc4C32)cc1 (stereo not shown),14
2,CCc1nc(SCc2cccnc2)[nH]c(=O)c1C,18.1
3,N#Cc1ccc(-c2ccc(OCC(O)CN3CCOCC3)cc2)cc1 (stereo not shown),7.69
4,Cc1cc(C)n(S(=O)(=O)c2cc(C(=O)O)c(Cl)cc2Cl)n1,8.76
5,COc1ccc(CN2CCNC(=O)C2CC(=O)NCc2cn3ccc(C)cc3n2)c(OC)c1 (stereo not shown),2.64
6,Cc1ccccc1N(CC(=O)NCc1ccco1)C(=O)CCC(=O)Nc1nccs1,11.2
7,COCCCN=Cc1c(C)[nH]n(-c2ccc(Br)c(C)c2)c1=O,5.05
8,CC(C)c1nnc(NC(=O)CCC(=O)Nc2ccc(F)cc2)s1,17.5
9,CCc1ccc(N(CC(=O)NC2CCCCC2)C(=O)CNC(=O)c2ccco2)cc1,4.93
10,CS(=O)(=O)c1ccc2nc(NC(=O)c3ccccc3)sc2c1,10.4
11,CCN1CCN(C(=O)c2ccc3c(=O)n(C4CCCC4)c(=S)[nH]c3c2)CC1,10.5
12,CCOC(=O)C1(CCCc2ccccc2)CCN(C(=O)CCn2cnnn2)CC1,0.61
13,O=C(c1cc(-c2cccnc2)nc2ccc(Cl)cc12)N1CCC2(CC1)OCCO2,5.12
14,COc1ccccc1C(=O)Oc1ccc(C(C)C)cc1,-1.15
15,O=C(CSc1n[nH]c(=O)n1C1CC1)NCc1ccccc1,9.68
16,COc1ccc(CCNc2oc(-c3ccccc3OC)nc2C#N)cc1OC,11.7
17,Cc1nn(-c2ccc(F)cc2)c2nc(N)c(C#N)c(-c3ccc(O)c(O)c3)c12,9.42
18,O=c1cc(N2CCN(Cc3ccccc3)CC2)c(-c2ccccc2)n[nH]1,20.2
19,COc1ccc(/C=C(/NC(=O)c2ccco2)C(=O)N2CCCCC2)cc1,8.14
20,Cc1ncc(CO)c2cc(S(=O)(=O)c3ccc(F)cc3)c(=O)oc12,17.8

row,Structure (SMILES),"hERG current change (%, negative = inhibition) at 1uM [%]"
1,CC(C)CCn1c(CN2CCOCC2)nc2c1c(=O)n(C)c(=O)n2C,7.31
2,CCS(=O)(=O)c1ccc2oc(SCC(=O)NC3CCCC(C)C3C)nc2c1 (stereo not shown),1.7
3,Cc1nc(NCC2CCCO2)c2nnn(Cc3ccccc3)c2n1 (stereo not shown),10
4,C=CCNc1ncnc2ccc(Br)cc12,12.4
5,COc1ccc(N2CC(C(=O)Nc3nc4ccc(S(C)(=O)=O)cc4s3)CC2=O)cc1 (stereo not shown),18
6,O=C(N/N=C1/CCCc2ccccc21)c1cc([N+](=O)[O-])cc([N+](=O)[O-])c1,-7.01
7,c1csc(CNc2ncnc3sccc23)c1,-1.9
8,CC1CN(C(C)C(=O)NC(c2ccccc2)c2ccccc2)CC(C)O1 (stereo not shown),9.48
9,NC(=O)c1ccc(CSc2nc3ccccc3s2)cc1,12.1
10,COc1ccccc1OCC(=O)OCc1cc(-c2ccco2)on1,15.9
11,O=c1cc(N2CCN(Cc3ccccc3)CC2)[nH]c(=O)n1Cc1ccc(F)cc1,2.68
12,CCC(=O)OC1(C)C(=O)C=C2C=C(C3CC3)OC=C2C1=O (stereo not shown),9.36
13,CCOC(=O)C1CCN(S(=O)(=O)c2cc(C(=O)N3CCCCC3)ccc2OC)CC1,12.2
14,COC(=O)CC1COc2ccccc2N1S(=O)(=O)c1ccc(Br)cc1 (stereo not shown),12.3
15,COC(=O)c1ccc(CSc2nc(C)nc3sc(C)c(C)c23)o1,12.3
16,O=C(CC1S/C(=N/N=C/c2cccs2)NC1=O)Nc1ccc(Cl)cc1 (stereo not shown),2.3
17,COC(=O)C(N)Cc1ccc(O)c(O)c1.Cl (stereo not shown),5.95
18,CC(=O)NC(c1ccc([N+](=O)[O-])cc1)c1c(O)ccc2ccccc12 (stereo not shown),4.04
19,COC(=O)c1ccc(/C=N/OCC(=O)Nc2cc(F)ccc2F)cc1,4.52
20,Cc1cccc(N(CC(=O)NC2CCCC2)C(=O)c2cc3cc4cccc(C)c4nc3s2)c1C,11.7

row,Structure (SMILES),"hERG current change (%, negative = inhibition) at 1uM [%]"
1,CCOC(=O)/C(C#N)=C1/C=C(C)c2ccccc2N1,11.3
2,CC(=O)Nc1ccc(NC(=O)CN2CCCC(C)C2)c(Cl)c1 (stereo not shown),-2.05
3,Cn1c(/N=C/c2cccs2)nc2ccccc21,12.8
4,COc1c(C)cc(NC(=O)c2ccc3c(c2)NC(=O)CO3)cc1C,12.2
5,CC(Sc1nnc(C2CCCCC2)n1N)C(=O)NCc1ccc2c(c1)OCO2 (stereo not shown),11
6,Cc1occc1-c1nnc(SCCNCCO)o1.O=C(O)C(=O)O,25.1
7,Cc1ccc2nsnc2c1S(=O)(=O)NCc1cccnc1,6.63
8,CCN(CC)S(=O)(=O)c1cccc(N=Nc2sc(N)nc2C)c1,11.6
9,Nc1scn[n+]1Cc1cccc2cccnc12.[Br-],1.03
10,COc1cc(C2c3cc4c(cc3C(OC3OC5COC(c6cccs6)OC5C(O)C3O)C3COC(=O)C23)OCO4)cc(OC)c1O (stereo not shown),17.8
11,Cc1ccc(C(C)n2cc(C(=O)NCc3ccncc3)nn2)cc1 (stereo not shown),4.48
12,CC(C)(C)C1CCC(=NNC(=S)NCc2ccccc2)CC1 (stereo not shown),-3.94
13,CCN(CC)C(=O)c1[nH]cnc1C(=O)Nc1ccon1,11.2
14,Cc1ccc(/C(COc2ccccc2O)=N\O)cc1,4.97
15,COc1ccc(C(=O)C(C)N(C(=O)c2ccc(Cl)cc2Cl)N2C(=O)C3C4C=CC(C4)C3C2=O)cc1 (stereo not shown),9.69
16,CCOC(=O)c1cncc(O)c1,10.8
17,CCCNC(=O)CSc1nccn1Cc1ccc(OC)cc1,10.9
18,Cn1c(=O)c2c(nc(Oc3cccc(O)c3)n2C)n(C)c1=O,15.9
